Assay results taken from the supplement of paper PMC10369915.
Some of the results follow. Rule as the data show it: active = 3.2 or more and inactive = the rest. The signal is at background level for most entries.

Assays:
Experiment in all cases: enrichment score (SH2-bound / input frequency) (ratio); bacterial display of known human phosphotyrosine sites (pTyr-Var adds point mutants) read by sequencing; higher = stronger binding; tyrosines were phosphorylated by kinases first
Settings in all cases: peptide library: pTyr-Var
SHP2 C-SH2 domain E139D = biological target: SHP2 C-SH2 domain E139D
[1] = biological target: SHP2 C-SH2 domain wild-type
SHP2 N-SH2 domain L43F = biological target: SHP2 N-SH2 domain L43F
SHP2 N-SH2 domain T42A = biological target: SHP2 N-SH2 domain T42A
SHP2 N-SH2 domain T52S = biological target: SHP2 N-SH2 domain T52S
[2] = biological target: SHP2 N-SH2 domain wild-type
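Also: displayed peptides selected on beads carrying the immobilized SH2 domain, with library peptides lacking any tyrosine serving as negative controls.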

| Binder | enrichment score (SHP2 C-SH2 domain E139D) | enrichment score [1] | enrichment score (SHP2 N-SH2 domain L43F) | enrichment score (SHP2 N-SH2 domain T42A) | enrichment score (SHP2 N-SH2 domain T52S) | enrichment score [2] |
| --- | --- | --- | --- | --- | --- | --- |
| FADIAYIYRHG [PAH_Y166_N167I] | inactive: 1.52 | inactive: 1.41 | inactive: 1.35 | inactive: 1.14 | inactive: 1.34 | inactive: 1.54 |
| SLYPGYNFRYA [P2RX7_Y291] | inactive: 0.92 | inactive: 0.715 | inactive: 0.775 | inactive: 0.929 | inactive: 0.743 | inactive: 0.762 |
| FGAHNYHPLPV [OAT_Y55_YF] | inactive: 1.11 | inactive: 0.913 | inactive: 0.903 | inactive: 0.817 | inactive: 1.11 | inactive: 0.974 |
| FADIAYNYRDG [PAH_Y166_H170D] | inactive: 1.15 | inactive: 0.971 | inactive: 1.43 | inactive: 0.842 | inactive: 0.89 | inactive: 1.12 |
| EVQKNYEHLFK [PAM16_Y77] | inactive: 0.66 | inactive: 0.786 | inactive: 0.773 | inactive: 0.513 | inactive: 0.697 | inactive: 0.813 |
| VASIFYTLVIP [OR8K3_Y277] | active: 3.3 | inactive: 3.05 | inactive: 3.11 | inactive: 3.04 | inactive: 2.89 | inactive: 2.93 |
| MKALGYFAVVT [OPA1_Y498] | inactive: 1.14 | inactive: 1.37 | inactive: 1.08 | inactive: 1.09 | inactive: 0.841 | inactive: 1.34 |
| MSYDRYMAICH [OR2A5_Y123] | inactive: 0.828 | inactive: 1.06 | inactive: 0.883 | inactive: 0.775 | inactive: 0.799 | inactive: 1.14 |
| CNPRRYPVLMS [OR2T1_Y182_L180R] | inactive: 1.2 | inactive: 0.822 | inactive: 1.08 | inactive: 0.957 | inactive: 1.1 | inactive: 1.12 |
| PLLTDYSPQLQ [OTC_Y345_S340P] | inactive: 1.1 | inactive: 0.772 | inactive: 0.992 | inactive: 0.829 | inactive: 1.09 | inactive: 0.894 |
| DLTQDYEEWKR [ORC6_Y232] | inactive: 0.771 | inactive: 0.661 | inactive: 0.737 | inactive: 0.611 | inactive: 0.864 | inactive: 0.691 |
| CNPLRYPVLMS [OR2T1_Y182] | inactive: 0.976 | inactive: 0.983 | inactive: 0.898 | inactive: 0.923 | inactive: 0.747 | inactive: 1.05 |
| SLLTDDSPQLQ [OTC_Y345_Y345D] | inactive: 0.751 | inactive: 0.962 | inactive: 0.613 | inactive: 0.698 | inactive: 0.804 | inactive: 0.976 |
| SKGFAYVHFDS [PABPC5_Y149_YF] | inactive: 1.95 | inactive: 1.62 | inactive: 1.67 | inactive: 1.63 | inactive: 1.59 | inactive: 1.54 |
| SILAVYSKDNF [PANK2_Y400_YF] | inactive: 1.2 | inactive: 1.2 | inactive: 1.48 | inactive: 0.906 | inactive: 1.49 | inactive: 1.02 |
| YGAHNHHPLPV [OAT_Y55_Y55H] | active: 3.5 | inactive: 3.19 | active: 3.28 | inactive: 2.68 | active: 3.24 | inactive: 2.6 |
| MSFDRYMAVCH [OR2A5_Y123_I126V_YF] | inactive: 0.923 | inactive: 1.04 | inactive: 0.832 | inactive: 1.02 | inactive: 0.732 | inactive: 1.28 |
| FADTAYNYRHG [PAH_Y166_I164T] | inactive: 0.868 | inactive: 0.731 | inactive: 0.916 | inactive: 0.636 | inactive: 0.962 | inactive: 1.21 |
| SECCKYKTDNP [OSMR_Y689_I691T] | inactive: 0.804 | inactive: 0.757 | inactive: 0.738 | inactive: 0.551 | inactive: 0.893 | inactive: 0.978 |

| Binder | enrichment score (SHP2 C-SH2 domain E139D) | enrichment score [1] | enrichment score (SHP2 N-SH2 domain L43F) | enrichment score (SHP2 N-SH2 domain T42A) | enrichment score (SHP2 N-SH2 domain T52S) | enrichment score [2] |
| --- | --- | --- | --- | --- | --- | --- |
| MPVDGYISGLL [PAK6_Y81] | inactive: 0.823 | inactive: 0.776 | inactive: 0.79 | inactive: 0.655 | inactive: 0.731 | inactive: 0.844 |
| SECCKYKIDNL [OSMR_Y689_P694L] | inactive: 1.1 | inactive: 0.882 | inactive: 1.13 | inactive: 0.76 | inactive: 0.765 | inactive: 1.13 |
| PGVDIYISPNM [PADI3_Y51] | inactive: 1.1 | inactive: 0.71 | inactive: 0.986 | inactive: 0.716 | inactive: 0.982 | inactive: 0.788 |
| RNPLRYTSILT [OR51B6_Y130_S126N] | inactive: 1.47 | inactive: 1.82 | inactive: 2.32 | active: 4.3 | inactive: 3.09 | inactive: 1.61 |
| FADIAYNFRDG [PAH_Y166_H170D_YF] | inactive: 0.998 | inactive: 0.655 | inactive: 0.787 | inactive: 0.727 | inactive: 0.686 | inactive: 0.842 |
| FADIAYNYRHA [PAH_Y166_G171A] | inactive: 1.12 | inactive: 0.899 | inactive: 0.757 | inactive: 0.764 | inactive: 0.872 | inactive: 1.07 |
| KGKLIYLLGDS [NXPE1_Y350] | inactive: 2.4 | inactive: 2 | inactive: 2.28 | inactive: 2.04 | inactive: 2.03 | inactive: 2.11 |
| EREFKYGAHNF [OAT_Y50_YF] | inactive: 0.862 | inactive: 0.736 | inactive: 0.637 | inactive: 0.612 | inactive: 0.69 | inactive: 0.728 |
| DVLEFCNSKKT [PAK1_Y131_Y131C] | inactive: 1.09 | inactive: 0.823 | inactive: 0.745 | inactive: 0.708 | inactive: 0.74 | inactive: 0.649 |
| SLLLSYYLIKW [NUP160_Y773_P768S] | active: 3.21 | inactive: 3.04 | inactive: 3.09 | inactive: 2.79 | inactive: 2.77 | active: 3.24 |
| HSFNSYTFPRL [PAK5_Y316_YF] | inactive: 0.697 | inactive: 0.458 | inactive: 0.507 | inactive: 0.48 | inactive: 0.573 | inactive: 0.744 |
| MAFDRYAAICS [OR8H2_Y123_H120Y_YF] | inactive: 0.847 | inactive: 1.02 | inactive: 0.82 | inactive: 0.855 | inactive: 0.731 | inactive: 1.1 |
| SKAFAYVHFDS [PABPC5_Y149_G146A_YF] | inactive: 2.19 | inactive: 1.94 | inactive: 1.87 | inactive: 1.8 | inactive: 2.9 | inactive: 1.74 |
| CNPLCYPTIMI [OR6K6_Y160_R159C] | inactive: 0.586 | inactive: 0.891 | inactive: 0.724 | inactive: 0.678 | inactive: 0.754 | inactive: 0.861 |
| DFLSSYSAVNE [OAT_Y85_Q90E] | inactive: 0.903 | inactive: 1.06 | inactive: 0.824 | inactive: 0.809 | inactive: 0.886 | inactive: 0.957 |
| SLNAVYPRAGS [OAS3_Y376] | inactive: 0.698 | inactive: 0.594 | inactive: 0.748 | inactive: 0.629 | inactive: 0.649 | inactive: 0.651 |
| RSPLRYTSILT [OR51B6_Y130] | inactive: 1.76 | inactive: 2.95 | inactive: 2.44 | active: 4.02 | active: 3.44 | inactive: 1.6 |
| VVSLFYGTALF [OR10C1_Y251_M246V] | inactive: 1.38 | inactive: 1.84 | inactive: 1.08 | inactive: 1.09 | inactive: 1.27 | inactive: 1.98 |
